# Assay results reported in the supplement of paper PMC8728848.
# The other results are listed elsewhere or left out.
# B1: Nc3LysM (protein)
# chain: QFTVPPDTTAEPNTIKTCTWWHVAGSGDSCTSIASTYGITSEQFARWDMETTDSPKNPSVATACKLTVGNSYCIENNFGQDDPPTPSISSSTLIGTATTSTTASTTTGNGISTPTPIQEGMETATTTTSSGNGITTPTPTQAGMETVGNCDRFHLVKSGDQCGTIASTYGITLANFYSWNPAVGTSCQSLWLDTYVCVRTIGFVPPKTTTTTTKKPTSTTSAGGVATPTPTQPGMETVSGCKKFHKGRGNVSTVASGDQCGTIATRYGISLANFYSWNPAVGSSCQTLWLDYYVCVGR
# Assays:
# Test in all cases: glycan array binding signal (z-score within array); higher = stronger binding
# Details in all cases: glycan notation: IUPAC condensed, linker removed
# Fuc(a1-3)GlcNAc = biological target: Fuc(a1-3)GlcNAc
# Method in brief: (§1)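 Negative Z-scores can be read as non-binding. The Z-score is calculated within each array and then averaged across arrays of one protein sequence at different concentrations or buffers and across linkers. Arrays, 3228 in all, were curated from the Consortium for Functional Glycomics database and kept only where the protein sequence was available.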
# [1] = biological target: Fuc(a1-3)[Gal(b1-4)]Glc6S
# Method in brief: as §1
# [2] = biological target: Fuc(a1-3)[Gal(b1-4)]GlcNAc
# Method in brief: as §1
# [3] = biological target: Fuc(a1-3)[Gal(b1-4)]GlcNAc(b1-2)Man
# Method in brief: as §1
# [4] = biological target: Fuc(a1-3)[Gal(b1-4)]GlcNAc(b1-2)Man(a1-3)[Fuc(a1-3)[Gal(b1-4)]GlcNAc(b1-2)Man(a1-6)]Man(b1-4)GlcNAc(b1-4)GlcNAc
# Method in brief: as §1
# [5] = biological target: Fuc(a1-3)[Gal(b1-4)]GlcNAc(b1-2)Man(a1-3)[Fuc(a1-3)[Gal(b1-4)]GlcNAc(b1-2)Man(a1-6)]Man(b1-4)GlcNAc(b1-4)[Fuc(a1-6)]GlcNAc
# Method in brief: as §1
# [6] = biological target: Fuc(a1-3)[Gal(b1-4)]GlcNAc(b1-3)Gal(b1-3)[Fuc(a1-4)]GlcNAc
# Method in brief: as §1
# [7] = biological target: Fuc(a1-3)[Gal(b1-4)]GlcNAc(b1-3)Gal(b1-4)[Fuc(a1-3)]GlcNAc
# Method in brief: as §1
# [8] = biological target: Fuc(a1-3)[Gal(b1-4)]GlcNAc(b1-3)Gal(b1-4)[Fuc(a1-3)]GlcNAc(b1-3)Gal(b1-4)[Fuc(a1-3)]GlcNAc
# Method in brief: as §1
# [9] = biological target: Fuc(a1-3)[Gal(b1-4)]GlcNAc(b1-3)GalNAc
# Method in brief: as §1
# [10] = biological target: Fuc(a1-3)[Gal(b1-4)]GlcNAc(b1-6)GalNAc
# Method in brief: as §1
# [11] = biological target: Fuc(a1-3)[Gal(b1-4)]GlcNAc(b1-6)[Gal(b1-3)GlcNAc(b1-3)]Gal(b1-4)Glc
# Method in brief: as §1
# [12] = biological target: Fuc(a1-3)[Gal(b1-4)]GlcNAc6S
# Method in brief: as §1
# [13] = biological target: Fuc(a1-3)[Gal3S(b1-4)]Glc
# Method in brief: as §1
# [14] = biological target: Fuc(a1-3)[Gal3S(b1-4)]GlcNAc
# Method in brief: as §1
# [15] = biological target: Fuc(a1-3)[Gal3S(b1-4)]GlcNAc6S
# Method in brief: as §1
# [16] = biological target: Fuc(a1-3)[GalNAc(b1-4)]GlcNAc
# Method in brief: as §1
# [17] = biological target: Fuc(a1-3)[GalNAc(b1-4)]GlcNAc6S
# Method in brief: as §1
# Fuc(a1-4)GlcNAc = biological target: Fuc(a1-4)GlcNAc
# Method in brief: as §1
# Fuc(b1-3)GlcNAc = biological target: Fuc(b1-3)GlcNAc
# Method in brief: as §1
# Gal(a1-2)Gal = biological target: Gal(a1-2)Gal
# Method in brief: as §1
# Gal(a1-3)Gal = biological target: Gal(a1-3)Gal
# Method in brief: as §1
# Gal(a1-3)Gal(b1-3)GlcNAc = biological target: Gal(a1-3)Gal(b1-3)GlcNAc
# Method in brief: as §1
# [18] = biological target: Gal(a1-3)Gal(b1-3)GlcNAc(b1-2)Man
# Method in brief: as §1
# [19] = biological target: Gal(a1-3)Gal(b1-3)GlcNAc(b1-2)Man(a1-3)[Gal(a1-3)Gal(b1-3)GlcNAc(b1-2)Man(a1-6)]Man(b1-4)GlcNAc(b1-4)GlcNAc
# Method in brief: as §1
# [20] = biological target: Gal(a1-3)Gal(b1-3)GlcNAc(b1-3)GalNAc
# Method in brief: as §1
# [21] = biological target: Gal(a1-3)Gal(b1-3)GlcNAc(b1-6)GalNAc
# Method in brief: as §1
# [22] = biological target: Gal(a1-3)Gal(b1-3)[Fuc(a1-4)]GlcNAc(b1-2)Man(a1-3)[Gal(a1-3)Gal(b1-3)[Fuc(a1-4)]GlcNAc(b1-2)Man(a1-6)]Man(b1-4)GlcNAc(b1-4)GlcNAc
# Method in brief: as §1
# Gal(a1-3)Gal(b1-4)Glc = biological target: Gal(a1-3)Gal(b1-4)Glc
# Method in brief: as §1
# Gal(a1-3)Gal(b1-4)GlcNAc = biological target: Gal(a1-3)Gal(b1-4)GlcNAc
# Method in brief: as §1
binder,measurement,setting,value
B1,glycan array binding signal (z-score),Fuc(a1-3)GlcNAc,-0.086
same,glycan array binding signal (z-score),[1],0.188
same,glycan array binding signal (z-score),[2],-0.119
same,glycan array binding signal (z-score),[3],-0.252
same,glycan array binding signal (z-score),[4],-0.153
same,glycan array binding signal (z-score),[5],-0.105
same,glycan array binding signal (z-score),[6],-0.113
same,glycan array binding signal (z-score),[7],-0.173
same,glycan array binding signal (z-score),[8],0.033
same,glycan array binding signal (z-score),[9],-0.152
same,glycan array binding signal (z-score),[10],-0.014
same,glycan array binding signal (z-score),[11],-0.151
same,glycan array binding signal (z-score),[12],0.031
same,glycan array binding signal (z-score),[13],-0.089
same,glycan array binding signal (z-score),[14],0.022
same,glycan array binding signal (z-score),[15],-0.105
same,glycan array binding signal (z-score),[16],-0.127
same,glycan array binding signal (z-score),[17],-0.225
same,glycan array binding signal (z-score),Fuc(a1-4)GlcNAc,-0.126
same,glycan array binding signal (z-score),Fuc(b1-3)GlcNAc,-0.013
same,glycan array binding signal (z-score),Gal(a1-2)Gal,0.243
same,glycan array binding signal (z-score),Gal(a1-3)Gal,-0.248
same,glycan array binding signal (z-score),Gal(a1-3)Gal(b1-3)GlcNAc,-0.232
same,glycan array binding signal (z-score),[18],-0.203
same,glycan array binding signal (z-score),[19],0.295
same,glycan array binding signal (z-score),[20],-0.04
same,glycan array binding signal (z-score),[21],-0.073
same,glycan array binding signal (z-score),[22],0.161
same,glycan array binding signal (z-score),Gal(a1-3)Gal(b1-4)Glc,-0.179
same,glycan array binding signal (z-score),Gal(a1-3)Gal(b1-4)GlcNAc,0.019
